Reference: a collection of fitness landscapes (doi:10.1016/j.celrep.2020.107928)
Whole data set: some 81,000 sequences, median “one-hybrid fitness for binding NBS DNA” near -0.1, cut for the highest 2% near 0.36. Some of the results follow.

B1: Caulobacter ParB omega fusion; a variant is named by its letters at X, in order, B8GW30 (parent)
chain: MESVVVGEPGMSEGRRGLGRGLSALLGEVDAAPAQAPGEQLGGSREAPIEILQRNPDQPRRTFREEDLEDLSNSIREKGVLQPILVRPSPDTAGEYQIVAGERAWRAAQRAGLKTVPIMVRELDDLAVLEIGIIENVQRADLNVLEEALSYKVLMEKFERTQENIAQTIGKSXSHVANXMRLLXLPDEVQSYLVSGELTAXHARAIAAAADPVALAKQIIEGGLSVRETEALARKAPNLSAGKSKGGRPPRVKDTDTQALESDLSSVLGLDVSIDHRGSTGTLTITYATLEQLDDLCNRLTRGI

Variants of: B1
Assay: one-hybrid fitness for binding NBS DNA (the Noc-binding site; scaled: cognate 1, non-cognate 0); higher = stronger binding
Conditions: with NBS DNA site
How it was run: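 Caulobacter ParB libraries with four specificity codons randomised were screened by bacterial one-hybrid selection in the E. coli USO strain, using a HIS3 reporter whose site lies 19 bp from the promoter. Selection ran for 48 hours at 37°C on M9 lacking histidine, with 0.1 mM IPTG and 5 mM 3-AT. Plasmids were Illumina-sequenced before and after selection, three replicate libraries were pooled, and variants with under 10 reads were dropped. Fitness is the log change in each variant's read ratio to wild type, rescaled against the cognate and non-cognate sites.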

one-hybrid fitness for binding NBS DNA, 0.549:
KRRS

one-hybrid fitness for binding NBS DNA, ≤ 0.2:
HYAG
EYYS
FAQC
TQEA
AMVA
RAWL
RWPQ
QLAN
LRTS
AMMW
KGWG
MHDT
FHRA
SGPR
SFLQ
GSSM
RGHS
FGPD
AIIN
VISL
SHHM
RTGF
YYNA
GPYW
DDNC
HFHG
QLYM
MDMM
HNPG
ACLC
KRYI
WGSR
QDAI
RHEP
KAML
VQIG
DVEG
NVRV
MVDL
EQCS
PTYP
CSCS
KCNF
VLRL
VDIF
PMSV
HPYV
VGVC
LCFC
ERAY
SARG
NLQL
REVR
RFAS
FHPL
FLPE
PMTL
TTRV
LECA
RRMW
KGWY
EPYK
DITR
MSDC
NVHL
YTGV
YKMS
SPEK
QFSM
ARHP
NFQF
GQYG
VRAK
CRSE
PVER
TFTT
YFNR
AQQY
QISI
RPRF
YHCF
TGAY
VNVT
NVAD
PYNL
RMTY
AMAF
RCGW
QLLV
HGIT
TTDH
ASTM
QKEC
DPAN
VQNR
TGQC
CPAI
FTWF
YRPS
LMPG
SRHK
QGLL
FAGC
NAKN
EQLI
GRQC
SEVC
FRLF
HKQS
NIRW
MSEG
SVTV
FVLT
PIHS
DPPM
YLHG
TKQT
IHKE
SVIG
RQPM
VLHC
GDQG
SSTP
KQPM
PSLT
NPVN
PGTL
MMNG
YDLT
HCDC
QSTN
QPQV
SRGM
RIEA
LTAG
ERCR
EPAR
HGNA
QVNN
LFNG
RWHL
SPAS
IVDV
QLSC
HDRA

one-hybrid fitness for binding NBS DNA, 0.234:
ECRR

one-hybrid fitness for binding NBS DNA, 0.253:
RMKK

one-hybrid fitness for binding NBS DNA, 0.359:
TRTR

one-hybrid fitness for binding NBS DNA, 0.796:
QRWR

one-hybrid fitness for binding NBS DNA, 0.57:
RYKS

one-hybrid fitness for binding NBS DNA, 0.551:
QTMT

one-hybrid fitness for binding NBS DNA, 0.448:
RHQR
